From paper PMC9411691, “Protein-Ligand Identification and In Vitro Inhibitory Effects of Cathine on 11 Major Human Drug Metabolizing Cytochrome P450s” (International Journal of Toxicology, 2022)
Counter-ions that a name gives are not always drawn.

Assays:
CYP2D6 = CYP2D6 (Homo sapiens, UniProt P10635); assay: Vivid CYP450 fluorescence-based inhibition assay, CYP2D6
CYP2A6 = target: T1, CYP2A6 (Homo sapiens, UniProt P11509); assay: Vivid CYP450 fluorescence-based inhibition assay, CYP2A6
T1 sequence (P11509 1-494): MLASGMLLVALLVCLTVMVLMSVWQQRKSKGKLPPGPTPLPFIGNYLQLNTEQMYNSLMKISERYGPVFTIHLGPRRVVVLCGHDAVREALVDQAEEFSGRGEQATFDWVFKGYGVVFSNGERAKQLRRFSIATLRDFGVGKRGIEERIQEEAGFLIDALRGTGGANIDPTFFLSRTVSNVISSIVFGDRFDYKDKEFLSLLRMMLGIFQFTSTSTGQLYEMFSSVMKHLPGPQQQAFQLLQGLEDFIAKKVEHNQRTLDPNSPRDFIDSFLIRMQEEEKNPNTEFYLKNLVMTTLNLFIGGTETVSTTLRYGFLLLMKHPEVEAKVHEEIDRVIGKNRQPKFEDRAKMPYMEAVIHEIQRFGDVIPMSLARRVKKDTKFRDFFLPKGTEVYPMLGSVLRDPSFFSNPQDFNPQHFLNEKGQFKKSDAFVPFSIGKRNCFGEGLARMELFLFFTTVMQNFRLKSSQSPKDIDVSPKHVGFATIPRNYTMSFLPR

CYP2C8 = target: T2, CYP2C8 (Homo sapiens, UniProt P10632); assay: Vivid CYP450 fluorescence-based inhibition assay, CYP2C8; conditions: read-out: IC50 with NADPH; 30 minutes pre-incubation with NADPH (time-dependent inhibition)
T2 sequence (P10632 1-490): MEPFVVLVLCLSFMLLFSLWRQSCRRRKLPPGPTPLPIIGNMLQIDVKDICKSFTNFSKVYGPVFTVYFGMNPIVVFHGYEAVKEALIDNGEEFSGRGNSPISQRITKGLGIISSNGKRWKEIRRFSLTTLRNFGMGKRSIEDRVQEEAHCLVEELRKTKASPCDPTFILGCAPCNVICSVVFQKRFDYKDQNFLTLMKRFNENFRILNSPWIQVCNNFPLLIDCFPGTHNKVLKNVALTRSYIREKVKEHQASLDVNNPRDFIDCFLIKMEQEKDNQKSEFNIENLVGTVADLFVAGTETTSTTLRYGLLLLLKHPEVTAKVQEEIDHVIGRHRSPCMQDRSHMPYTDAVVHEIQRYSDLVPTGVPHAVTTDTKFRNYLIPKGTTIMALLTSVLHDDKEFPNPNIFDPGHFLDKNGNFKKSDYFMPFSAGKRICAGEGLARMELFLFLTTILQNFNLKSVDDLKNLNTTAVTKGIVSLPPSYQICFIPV

CYP2B6 = target: T3, CYP2B6 (Homo sapiens, UniProt P20813); assay: Vivid CYP450 fluorescence-based inhibition assay, CYP2B6; conditions: read-out: IC50 with NADPH; 30 minutes pre-incubation with NADPH (time-dependent inhibition)
T3 sequence (P20813 1-491): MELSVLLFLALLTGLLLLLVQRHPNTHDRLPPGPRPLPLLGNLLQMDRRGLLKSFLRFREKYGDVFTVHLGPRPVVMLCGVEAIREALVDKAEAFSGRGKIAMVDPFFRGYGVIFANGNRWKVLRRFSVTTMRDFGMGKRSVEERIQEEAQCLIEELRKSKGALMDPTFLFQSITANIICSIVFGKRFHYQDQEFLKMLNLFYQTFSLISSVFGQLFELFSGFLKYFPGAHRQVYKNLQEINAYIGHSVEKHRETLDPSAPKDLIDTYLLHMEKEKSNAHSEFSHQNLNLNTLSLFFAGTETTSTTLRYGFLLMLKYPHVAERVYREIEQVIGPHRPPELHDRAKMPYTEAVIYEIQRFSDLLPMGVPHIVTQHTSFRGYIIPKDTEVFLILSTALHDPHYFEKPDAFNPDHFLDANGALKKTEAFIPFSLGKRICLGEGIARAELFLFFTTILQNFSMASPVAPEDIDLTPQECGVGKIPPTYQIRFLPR

[1] = IC50 with NADPH, 30 minutes pre-incubation with NADPH (time-dependent inhibition)

Chain of UniProt P10635 (P10635 whole entry): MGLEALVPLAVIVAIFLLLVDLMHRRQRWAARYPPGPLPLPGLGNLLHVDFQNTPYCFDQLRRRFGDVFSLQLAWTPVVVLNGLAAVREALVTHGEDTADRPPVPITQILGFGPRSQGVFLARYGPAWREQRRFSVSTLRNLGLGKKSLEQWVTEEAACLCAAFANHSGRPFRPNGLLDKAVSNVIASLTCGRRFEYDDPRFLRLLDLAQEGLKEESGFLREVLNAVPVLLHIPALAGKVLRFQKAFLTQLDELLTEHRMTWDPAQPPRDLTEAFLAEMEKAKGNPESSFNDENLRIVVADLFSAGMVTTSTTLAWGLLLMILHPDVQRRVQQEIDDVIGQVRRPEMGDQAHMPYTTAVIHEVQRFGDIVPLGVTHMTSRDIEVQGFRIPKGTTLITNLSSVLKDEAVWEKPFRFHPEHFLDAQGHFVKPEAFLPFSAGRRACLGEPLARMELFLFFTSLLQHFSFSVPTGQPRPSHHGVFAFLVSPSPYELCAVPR

SMILES: C[C@H](N)[C@@H](O)c1ccccc1 [Cathine, (1 S, 2 S)-2-amino-1-phenylpropan-1-ol.hydrochloride]
- IC50 (CYP2D6; [1]): 860 µM
- IC50 (CYP2D6; IC50 without NADPH, reversible inhibition, no NADPH in pre-incubation, substrate EOMCC): 435 µM
- IC50 (CYP2A6; [1]): 70 µM
- IC50 shift at 60 min (CYP2A6; human, pH 8, probe Vivid CC (3-cyanocoumarin)): 1.14
- IC50 (CYP2C8): > 100 µM
- IC50 (CYP2B6): > 100 µM
